# The supplement of paper PMC3334620
# In all, about 33,000 sequences were measured (“E-score (-0.5 to 0.5)”: median about -0.011, highest 2% from about 0.28 on). The list shows a part of the results.
# Biological target: T1, Gcr1 (UniProt P07261)
# T1 sequence: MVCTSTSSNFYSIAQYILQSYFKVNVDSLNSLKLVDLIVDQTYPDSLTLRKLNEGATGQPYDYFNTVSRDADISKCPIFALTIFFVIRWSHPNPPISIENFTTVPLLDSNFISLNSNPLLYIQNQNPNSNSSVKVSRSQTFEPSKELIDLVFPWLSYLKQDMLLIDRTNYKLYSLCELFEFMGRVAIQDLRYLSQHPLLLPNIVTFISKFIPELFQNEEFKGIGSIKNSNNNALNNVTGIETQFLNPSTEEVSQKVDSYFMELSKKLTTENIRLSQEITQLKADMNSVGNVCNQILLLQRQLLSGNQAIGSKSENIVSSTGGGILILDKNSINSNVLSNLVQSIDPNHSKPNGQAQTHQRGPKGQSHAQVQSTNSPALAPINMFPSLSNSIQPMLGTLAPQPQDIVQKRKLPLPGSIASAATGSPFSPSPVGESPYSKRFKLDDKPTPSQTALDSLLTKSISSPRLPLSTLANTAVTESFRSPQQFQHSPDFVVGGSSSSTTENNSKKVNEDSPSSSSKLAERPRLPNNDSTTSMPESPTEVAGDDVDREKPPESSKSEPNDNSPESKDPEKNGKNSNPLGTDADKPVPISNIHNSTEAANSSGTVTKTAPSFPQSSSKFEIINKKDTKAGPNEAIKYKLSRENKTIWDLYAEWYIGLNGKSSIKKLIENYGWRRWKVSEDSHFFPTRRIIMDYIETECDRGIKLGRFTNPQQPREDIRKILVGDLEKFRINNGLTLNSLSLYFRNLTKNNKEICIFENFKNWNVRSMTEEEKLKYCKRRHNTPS
# Experiment: PBM E-score (8-mer binding enrichment) (E-score (-0.5 to 0.5)); higher = stronger / more preferred TF binding; most listed sequences are background and not binding sites
# Settings: protein concentration: 100 nM; construct: GST-full length
# Description: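 Universal 'all 10-mer' protein binding microarrays (Agilent AMADID 015681) probed with GST-tagged S. cerevisiae TFs (full-length or DBD) made by in vitro transcription/translation (PURExpress), about 100-200 nM. Bound TF was detected with fluorescent anti-GST. Each ungapped 8-mer (which stands for itself and its reverse complement) is scored by the PBM enrichment score (E-score), a modified Wilcoxon-Mann-Whitney statistic from -0.5 to +0.5, computed with the Universal PBM Analysis Suite. Scale: above 0.35 generally sequence-specific binding.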
row,Sequence,PBM E-score
1,ACTCCTTA,0.0309
2,TCGAATCA,-0.0159
3,ACCTAAGT,-0.0904
4,ATTGTCAA,-0.00093
5,AACTAACC,0.0776
6,CGAGAGCC,-0.13
7,CAGTTACC,-0.0958
8,ACGGGACT,-0.172
9,GATAAATC,-0.0956
10,AAAAGCGC,-0.0384
11,GAAATGGC,-0.0112
12,CGTAGGGC,-0.108
13,AATTGACA,0.0157
14,AGCCTAGA,-0.127
15,ACGCCGCA,0.107
16,TCCCTCCA,-0.249
17,CAGCGGTA,-0.169
18,CATAGAAG,-0.0428
19,ATGTATTG,0.0843
20,AATTCCTG,0.139
21,CAGACAGC,-0.0536
22,GTGCGTAA,0.0201

row,Sequence,PBM E-score
1,ACAAGAGC,0.007
2,GTCTCATA,-0.093
3,CTTCGCAC,0.0523
4,TGGAACAA,-0.0703
5,AATGCGCA,-0.0656
6,AGTTACGG,0.0652
7,CATTTTTC,0.0497
8,AACAATAC,-0.124
9,ATTACAAA,-0.087
10,TCACCACA,-0.0822
11,CAGGTATC,0.311
12,ATACGAAA,0.182
13,CCGCCCGA,0.125
14,GACCCACA,0.101
15,AGATGTTC,0.0979
16,ACAATTCG,0.101
17,CGGCACAA,-0.139
18,AAATCCGC,-0.0711
19,AAATACGC,0.0151
20,AAGTCTTC,-0.2
21,ATTCAGCG,0.0196
22,CAAGCCAC,-0.124

row,Sequence,PBM E-score
1,AGACCCTA,-0.0538
2,GCCGTAAC,0.0121
3,CTGTTAAA,-0.0778
4,CGCTGCAC,0.109
5,GGTTTGTA,-0.12
6,ACTAATAC,0.137
7,CCATGTAC,0.0066
8,CGGCCTTC,-0.116
9,AAATCGAG,-0.0738
10,ACCAGGGG,0.0324
11,TATATCCA,0.116
12,AACCAGGG,-0.113
13,ATGCAACA,-0.0861
14,CACAGTCG,-0.221
15,ATATATAC,0.124
16,AGCTCCCG,-0.014
17,CATTCAAA,0.183
18,GCTCCGTA,0.153
19,GTAGGAAA,0.0638
20,AGAATTTG,0.161
21,GTGTCAAC,-0.0927
22,AAAGCTGG,-0.0228

row,Sequence,PBM E-score
1,CGAACTCC,0.181
2,CAACCCCG,-0.0459
3,GCCTCAGA,-0.141
4,AACCCAGC,0.0411
5,GCGGACAC,0.00647
6,GCCTATAA,0.17
7,AGGGTTGG,-0.0979
8,CAATTTTA,-0.0169
9,TACCGATA,0.124
10,AATTGTCT,-0.147
11,CCCGTCCG,-0.198
12,ACTCCAGC,-0.0861
13,CCAATCCA,-0.0361
14,GCGACAGC,-0.0838
15,AAGATGCT,0.288
16,AAGAATGA,-0.172
17,TCTTCCCA,-0.172
18,AACCTTGT,-0.0184
19,CAGGGGTA,-0.0642
20,CGCTAGCG,-0.1
